# Where a chain is given by its changes, count along the chain named. Some of the results follow.
# T1: RBFOX1 RRM (Homo sapiens, UniProt Q9NWB1 109-208)
# T1 sequence: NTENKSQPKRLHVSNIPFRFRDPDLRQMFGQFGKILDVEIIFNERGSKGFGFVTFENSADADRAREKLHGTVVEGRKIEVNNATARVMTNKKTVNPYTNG
# B1: AGUACGC (DNA:RNA)
# RNA: GGGAGACCGGAAUUCAGAUUGUCCAGUACGCUUAAAUCCCGUCGUAGCCACCA
# DNA 1: CAATCTGAATTCCGGTCTCCC
# DNA 2: TGGTGGCTACGACGGGATT
# B2: GAACAAA (DNA:RNA)
# RNA: GGGAGACCGGAAUUCAGAUUGUCCGAACAAAUUAAAUCCCGUCGUAGCCACCA
# DNA 1: CAATCTGAATTCCGGTCTCCC
# DNA 2: TGGTGGCTACGACGGGATT
# B3: ACCACUA (DNA:RNA)
# RNA: B1 RNA with G26C, U27C, G30U, C31A
# DNA 1: CAATCTGAATTCCGGTCTCCC
# DNA 2: TGGTGGCTACGACGGGATT
# B4: AGCAGCU (DNA:RNA)
# RNA: B1 RNA with U27C, C29G, G30C, C31U
# DNA 1: CAATCTGAATTCCGGTCTCCC
# DNA 2: TGGTGGCTACGACGGGATT
# B5: GAUACGC (DNA:RNA)
# RNA: B1 RNA with A25G, G26A
# DNA 1: CAATCTGAATTCCGGTCTCCC
# DNA 2: TGGTGGCTACGACGGGATT
# B6: GCGACCC (DNA:RNA)
# RNA: B1 RNA with A25G, G26C, U27G, G30C
# DNA 1: CAATCTGAATTCCGGTCTCCC
# DNA 2: TGGTGGCTACGACGGGATT
# B7: GUCCGAC (DNA:RNA)
# RNA: B2 RNA with A26U, A27C, A29G, A31C
# DNA 1: CAATCTGAATTCCGGTCTCCC
# DNA 2: TGGTGGCTACGACGGGATT
# B8: UCUCGAC (DNA:RNA)
# RNA: B1 RNA with A25U, G26C, A28C, C29G, G30A
# DNA 1: CAATCTGAATTCCGGTCTCCC
# DNA 2: TGGTGGCTACGACGGGATT
# B9: CGGCAAU (DNA:RNA)
# RNA: B2 RNA with G25C, A26G, A27G, A31U
# DNA 1: CAATCTGAATTCCGGTCTCCC
# DNA 2: TGGTGGCTACGACGGGATT
# B10: UUUACUU (DNA:RNA)
# RNA: B1 RNA with A25U, G26U, G30U, C31U
# DNA 1: CAATCTGAATTCCGGTCTCCC
# DNA 2: TGGTGGCTACGACGGGATT
# B11: CUUGACA (DNA:RNA)
# RNA: B2 RNA with G25C, A26U, A27U, C28G, A30C
# DNA 1: CAATCTGAATTCCGGTCTCCC
# DNA 2: TGGTGGCTACGACGGGATT
# B12: UUGUGAC (DNA:RNA)
# RNA: B1 RNA with A25U, G26U, U27G, A28U, C29G, G30A
# DNA 1: CAATCTGAATTCCGGTCTCCC
# DNA 2: TGGTGGCTACGACGGGATT
# B13: UACUUUC (DNA:RNA)
# RNA: B1 RNA with A25U, G26A, U27C, A28U, C29U, G30U
# DNA 1: CAATCTGAATTCCGGTCTCCC
# DNA 2: TGGTGGCTACGACGGGATT
# B14: GAUGGGU (DNA:RNA)
# RNA: B1 RNA with A25G, G26A, A28G, C29G, C31U
# DNA 1: CAATCTGAATTCCGGTCTCCC
# DNA 2: TGGTGGCTACGACGGGATT
# B15: CACCAAU (DNA:RNA)
# RNA: B2 RNA with G25C, A27C, A31U
# DNA 1: CAATCTGAATTCCGGTCTCCC
# DNA 2: TGGTGGCTACGACGGGATT
# B16: AUCGCCA (DNA:RNA)
# RNA: B1 RNA with G26U, U27C, A28G, G30C, C31A
# DNA 1: CAATCTGAATTCCGGTCTCCC
# DNA 2: TGGTGGCTACGACGGGATT
# B17: AUUGUGC (DNA:RNA)
# RNA: B1 RNA with G26U, A28G, C29U
# DNA 1: CAATCTGAATTCCGGTCTCCC
# DNA 2: TGGTGGCTACGACGGGATT
# B18: UCCUAUG (DNA:RNA)
# RNA: B2 RNA with G25U, A26C, A27C, C28U, A30U, A31G
# DNA 1: CAATCTGAATTCCGGTCTCCC
# DNA 2: TGGTGGCTACGACGGGATT
# B19: CACUUUU (DNA:RNA)
# RNA: B2 RNA with G25C, A27C, C28U, A29U, A30U, A31U
# DNA 1: CAATCTGAATTCCGGTCTCCC
# DNA 2: TGGTGGCTACGACGGGATT
# B20: CUCCUGU (DNA:RNA)
# RNA: B1 RNA with A25C, G26U, U27C, A28C, C29U, C31U
# DNA 1: CAATCTGAATTCCGGTCTCCC
# DNA 2: TGGTGGCTACGACGGGATT
# B21: UUGUGCC (DNA:RNA)
# RNA: B1 RNA with A25U, G26U, U27G, A28U, C29G, G30C
# DNA 1: CAATCTGAATTCCGGTCTCCC
# DNA 2: TGGTGGCTACGACGGGATT
# B22: ACCCGUA (DNA:RNA)
# RNA: B2 RNA with G25A, A26C, A27C, A29G, A30U
# DNA 1: CAATCTGAATTCCGGTCTCCC
# DNA 2: TGGTGGCTACGACGGGATT
# B23: GCUAGCU (DNA:RNA)
# RNA: B1 RNA with A25G, G26C, C29G, G30C, C31U
# DNA 1: CAATCTGAATTCCGGTCTCCC
# DNA 2: TGGTGGCTACGACGGGATT
# B24: GCAAUAC (DNA:RNA)
# RNA: B2 RNA with A26C, C28A, A29U, A31C
# DNA 1: CAATCTGAATTCCGGTCTCCC
# DNA 2: TGGTGGCTACGACGGGATT
# B25: AUAGACA (DNA:RNA)
# RNA: B2 RNA with G25A, A26U, C28G, A30C
# DNA 1: CAATCTGAATTCCGGTCTCCC
# DNA 2: TGGTGGCTACGACGGGATT
# B26: ACGGGAG (DNA:RNA)
# RNA: B1 RNA with G26C, U27G, A28G, C29G, G30A, C31G
# DNA 1: CAATCTGAATTCCGGTCTCCC
# DNA 2: TGGTGGCTACGACGGGATT
# B27: UCGUCAC (DNA:RNA)
# RNA: B1 RNA with A25U, G26C, U27G, A28U, G30A
# DNA 1: CAATCTGAATTCCGGTCTCCC
# DNA 2: TGGTGGCTACGACGGGATT
# B28: CAUGUUA (DNA:RNA)
# RNA: B2 RNA with G25C, A27U, C28G, A29U, A30U
# DNA 1: CAATCTGAATTCCGGTCTCCC
# DNA 2: TGGTGGCTACGACGGGATT
# B29: UGAAUAA (DNA:RNA)
# RNA: B2 RNA with G25U, A26G, C28A, A29U
# DNA 1: CAATCTGAATTCCGGTCTCCC
# DNA 2: TGGTGGCTACGACGGGATT
# B30: CCAUCGU (DNA:RNA)
# RNA: B1 RNA with A25C, G26C, U27A, A28U, C31U
# DNA 1: CAATCTGAATTCCGGTCTCCC
# DNA 2: TGGTGGCTACGACGGGATT
# B31: UUACGCC (DNA:RNA)
# RNA: B2 RNA with G25U, A26U, A29G, A30C, A31C
# DNA 1: CAATCTGAATTCCGGTCTCCC
# DNA 2: TGGTGGCTACGACGGGATT
# Biological target: T1, RBFOX1 RRM
# Test: EMSA; HiTS-Eq, 1 nM pool, 10 min; buffer printed only for the single-RNA assays: 10 mM Tris pH 7.5, 150 mM NaCl, 3.4 mM EDTA, 0.001% NP-40, 30 C
# Details: tags: His6 N-terminal (pET28a); label: 5' 32P
# How it was run: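 Purified wild-type or mutant RbFox RRM at increasing concentrations was equilibrated with 1 nM of 5′-radiolabelled RNA carrying 7 randomized nucleotides for 10 min in 50 µL. Unbound RNA was separated by 8% native PAGE and sequenced. Relative association constants came from read-count changes of each RNA species compared with the control reaction, normalised to the cognate motif.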
row,Binder,binding signal
1,B1,0.0101 KA relative to UGCAUGU
2,B2,0.00175 KA relative to UGCAUGU
3,B3,0.00145 KA relative to UGCAUGU
4,B4,0.00711 KA relative to UGCAUGU
5,B5,0.012 KA relative to UGCAUGU
6,B6,0.00921 KA relative to UGCAUGU
7,B7,0.0143 KA relative to UGCAUGU
8,B8,0.00586 KA relative to UGCAUGU
9,B9,0.0116 KA relative to UGCAUGU
10,B10,0.00634 KA relative to UGCAUGU
11,B11,0.00564 KA relative to UGCAUGU
12,B12,0.00519 KA relative to UGCAUGU
13,B13,0.00618 KA relative to UGCAUGU
14,B14,0.0161 KA relative to UGCAUGU
15,B15,0.001 KA relative to UGCAUGU
16,B16,0.00202 KA relative to UGCAUGU

row,Binder,binding signal
1,B17,0.0222 KA relative to UGCAUGU
2,B18,0.0102 KA relative to UGCAUGU
3,B19,0.000646 KA relative to UGCAUGU
4,B20,0.0131 KA relative to UGCAUGU
5,B21,0.0199 KA relative to UGCAUGU
6,B22,0.00331 KA relative to UGCAUGU
7,B23,0.0158 KA relative to UGCAUGU
8,B24,0.00467 KA relative to UGCAUGU
9,B25,0.00134 KA relative to UGCAUGU
10,B26,0.011 KA relative to UGCAUGU
11,B27,0.00454 KA relative to UGCAUGU
12,B28,0.00544 KA relative to UGCAUGU
13,B29,0.00876 KA relative to UGCAUGU
14,B30,0.00683 KA relative to UGCAUGU
15,B31,0.00657 KA relative to UGCAUGU

# — paper PMC9911399, “Two distinct binding modes provide the RNA-binding protein RbFox with extraordinary sequence specificity”
